These are yes or no findings as the source states them, for the method shown. For part of these data: In cells and extracts the contact can be indirect. Some binding calls cover weakened binding; strength is not graded here.
Assays:
[1] = target: GST-PE_PGRS30 fusion protein (Mycobacterium tuberculosis) (UniProt Q79FL8); assay: pull-down; both purified
[2] = target: GST-PE_PGRS30 fusion protein (Mycobacterium tuberculosis) (UniProt Q79FL8); assay: pull-down; GST-PE_PGRS30- or GST-coupled beads mixed with RAW264.7 whole cell lysate; immunoblot with anti-GST and anti-PHB2; only the target purified
[3] = target: GST-PE (Mycobacterium tuberculosis) (UniProt Q79FL8); assay: pull-down; GST-PE, GST-PGRS or GST-CT coupled to beads, mixed with recombinant His-PHB2 in 0.1% HNTG buffer, 4°C, 1 h; immunoblot with anti-GST and anti-PHB2; both purified
[4] = target: prohibitin 2 (PHB2), endogenous in RAW264.7 cells (mouse (endogenous in RAW264.7)) (UniProt O35129); assay: co-IP
[5] = target: GST-PE_PGRS30 fusion protein (Mycobacterium tuberculosis) (UniProt Q79FL8); assay: pull-down; in vitro binding of PHB1 and PE_PGRS30; details only in Supplementary Figure S2

Chains of the proteins cited; added tags and fusions are not shown. Lines headed by an entry give the natural chain unless they say otherwise; changes in a name come on top. Residues count along the entry.
UniProt Q79FL8: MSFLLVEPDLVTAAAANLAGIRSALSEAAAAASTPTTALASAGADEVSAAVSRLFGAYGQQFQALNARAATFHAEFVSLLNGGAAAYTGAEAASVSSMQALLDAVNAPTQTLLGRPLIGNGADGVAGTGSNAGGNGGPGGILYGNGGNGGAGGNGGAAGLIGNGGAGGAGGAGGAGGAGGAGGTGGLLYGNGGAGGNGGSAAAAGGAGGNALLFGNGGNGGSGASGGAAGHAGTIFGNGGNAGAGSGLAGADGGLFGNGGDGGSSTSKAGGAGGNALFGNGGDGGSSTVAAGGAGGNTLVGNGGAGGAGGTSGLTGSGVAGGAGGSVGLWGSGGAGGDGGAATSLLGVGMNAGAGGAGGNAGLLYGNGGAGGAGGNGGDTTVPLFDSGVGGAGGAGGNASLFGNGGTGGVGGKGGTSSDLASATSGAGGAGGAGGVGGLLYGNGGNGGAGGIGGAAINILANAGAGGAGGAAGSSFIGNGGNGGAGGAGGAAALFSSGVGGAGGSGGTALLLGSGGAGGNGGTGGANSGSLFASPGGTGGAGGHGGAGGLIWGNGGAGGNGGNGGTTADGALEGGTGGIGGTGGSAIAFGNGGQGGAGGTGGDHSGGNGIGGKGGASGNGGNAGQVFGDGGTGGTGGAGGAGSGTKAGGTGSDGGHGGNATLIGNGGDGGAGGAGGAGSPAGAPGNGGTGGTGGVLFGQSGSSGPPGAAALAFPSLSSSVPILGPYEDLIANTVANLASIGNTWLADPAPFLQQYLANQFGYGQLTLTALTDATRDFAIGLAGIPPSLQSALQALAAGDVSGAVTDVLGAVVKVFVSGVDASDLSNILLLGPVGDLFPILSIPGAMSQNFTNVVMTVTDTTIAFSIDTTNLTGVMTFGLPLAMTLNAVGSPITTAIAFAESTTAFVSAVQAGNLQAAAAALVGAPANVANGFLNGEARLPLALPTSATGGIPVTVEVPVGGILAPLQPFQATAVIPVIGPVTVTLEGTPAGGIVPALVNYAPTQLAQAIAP
GST-PE: residues 1-93 of Q79FL8
UniProt O35129: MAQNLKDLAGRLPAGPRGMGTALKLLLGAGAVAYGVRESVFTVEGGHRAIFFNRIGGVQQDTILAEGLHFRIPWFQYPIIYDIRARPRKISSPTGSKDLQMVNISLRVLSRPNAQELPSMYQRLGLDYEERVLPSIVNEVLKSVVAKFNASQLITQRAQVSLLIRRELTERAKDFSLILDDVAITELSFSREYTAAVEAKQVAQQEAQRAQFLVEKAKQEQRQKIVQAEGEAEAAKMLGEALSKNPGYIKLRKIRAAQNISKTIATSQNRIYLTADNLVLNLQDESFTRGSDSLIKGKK

His-PHB2 (1–50) (from UniProt O35129 1-50) (domain or fragment)
binding [1]: binds

prohibitin 2 (PHB2), endogenous in RAW264.7 cells (from UniProt O35129 1-299)
binding [2]: binds

His-PHB2 (from UniProt O35129 1-299)
binding [3]: no binding

His-PHB2 (51–299) (from UniProt O35129 51-299) (domain or fragment)
binding [1]: no binding

PE_PGRS30-Myc (from UniProt Q79FL8 1-1011)
binding [4]: binds

B1: PHB1 (protein, UniProt P67778 1-272)
chain: MAAKVFESIGKFGLALAVAGGVVNSALYNVDAGHRAVIFDRFRGVQDIVVGEGTHFLIPWVQKPIIFDCRSRPRNVPVITGSKDLQNVNITLRILFRPVASQLPRIYTSIGEDYDERVLPSITTEILKSVVARFDAGELITQRELVSRQVSDDLTERAATFGLILDDVSLTHLTFGKEFTEAVEAKQVAQQEAERARFVVEKAEQQKKAAIISAEGDSKAAELIANSLATAGDGLIELRKLEAAEDIAYQLSRSRNITYLPAGQSVLLQLPQ
binding [5]: binds
